# Literature values, collected in publication PMC11006913.
# Numbering of substitutions follows the chain as printed. This is one part of the list.
# Legend:
# Details in all cases: PBM; conditions not shown; double strand, one strand shown; scale: upbm affinity estimate (log intensity, higher = more binding, comparable within an allelic series)
# ARX (Homo sapiens) = ARX (Homo sapiens) (UniProt Q96QS3)
# ARX L343Q (Homo sapiens) = ARX L343Q (Homo sapiens) (UniProt Q96QS3)
# ARX P353L (Homo sapiens) = ARX P353L (Homo sapiens) (UniProt Q96QS3)
# ARX P353R (Homo sapiens) = ARX P353R (Homo sapiens) (UniProt Q96QS3)
# ARX R332H (Homo sapiens) = ARX R332H (Homo sapiens) (UniProt Q96QS3)
# [1] = molecular target: HOXD13 I322L (Homo sapiens) (UniProt P35453)
# ARX T333N (Homo sapiens) = ARX T333N (Homo sapiens) (UniProt Q96QS3)
# [2] = molecular target: PROP1 R112Q (Homo sapiens) (UniProt O75360)
# [3] = molecular target: PROP1 R99Q (Homo sapiens) (UniProt O75360)
# [4] = molecular target: NKX2-5 K183E (Homo sapiens) (UniProt P52952)
# [5] = molecular target: NKX2-5 R161P (Homo sapiens) (UniProt P52952)
# [6] = molecular target: NKX2-5 R190C (Homo sapiens) (UniProt P52952)
# ISX (Homo sapiens) = ISX (Homo sapiens) (UniProt Q2M1V0)
# ISX R83Q (Homo sapiens) = ISX R83Q (Homo sapiens) (UniProt Q2M1V0)
# [7] = molecular target: PITX2 L100Q (Homo sapiens) (UniProt Q99697)
# [8] = molecular target: PITX2 R108H (Homo sapiens) (UniProt Q99697)
# [9] = molecular target: PITX2 R130W (Homo sapiens) (UniProt Q99697)
# [10] = molecular target: PITX2 T114P (Homo sapiens) (UniProt Q99697)
# PBX4 (Homo sapiens) = molecular target: T1, PBX4 (Homo sapiens) (UniProt Q9BYU1)
# T1 sequence: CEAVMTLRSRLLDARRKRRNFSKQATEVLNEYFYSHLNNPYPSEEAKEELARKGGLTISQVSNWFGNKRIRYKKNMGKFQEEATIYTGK
# [11] = molecular target: T2, PBX4 R215Q (Homo sapiens) (UniProt Q9BYU1)
# T2 sequence: T1 sequence with R19Q
# UniProt P35453, sequence (P35453 263-343 I322L): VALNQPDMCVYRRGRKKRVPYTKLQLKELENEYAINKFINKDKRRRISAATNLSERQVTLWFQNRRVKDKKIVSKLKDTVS
sequence,measurement,setting,value
ATCGTTAA [8-mer ATCGTTAA],binding signal,ARX (Homo sapiens),11.6
same,binding signal,ARX L343Q (Homo sapiens),10.8
same,binding signal,ARX P353L (Homo sapiens),11.6
same,binding signal,ARX P353R (Homo sapiens),10.7
same,binding signal,ARX R332H (Homo sapiens),10.8
same,binding signal,[1],12.3
CCCGTCCC [8-mer CCCGTCCC],binding signal,ARX (Homo sapiens),10.2
same,binding signal,ARX L343Q (Homo sapiens),10.1
same,binding signal,ARX P353L (Homo sapiens),10.1
same,binding signal,ARX P353R (Homo sapiens),10
same,binding signal,ARX R332H (Homo sapiens),10.1
same,binding signal,ARX T333N (Homo sapiens),10.2
same,binding signal,[2],10.9
same,binding signal,[3],11
CCGTGGCC [8-mer CCGTGGCC],binding signal,ARX (Homo sapiens),10.3
same,binding signal,ARX L343Q (Homo sapiens),10.1
same,binding signal,ARX P353L (Homo sapiens),10.3
same,binding signal,ARX P353R (Homo sapiens),10.1
same,binding signal,ARX R332H (Homo sapiens),10.1
same,binding signal,ARX T333N (Homo sapiens),10.2
same,binding signal,[4],9.97
same,binding signal,[5],10.1
same,binding signal,[6],10.1
AGGGGGCC [8-mer AGGGGGCC],binding signal,ARX (Homo sapiens),9.99
same,binding signal,ARX L343Q (Homo sapiens),9.85
same,binding signal,ARX P353L (Homo sapiens),10
same,binding signal,ARX P353R (Homo sapiens),9.75
same,binding signal,ARX R332H (Homo sapiens),9.86
same,binding signal,ARX T333N (Homo sapiens),10.1
same,binding signal,ISX (Homo sapiens),9.51
same,binding signal,ISX R83Q (Homo sapiens),9.67
CCAGCCAG [8-mer CCAGCCAG],binding signal,ARX (Homo sapiens),10.2
same,binding signal,ARX L343Q (Homo sapiens),10.1
same,binding signal,ARX P353L (Homo sapiens),10.2
same,binding signal,ARX P353R (Homo sapiens),10.1
same,binding signal,ARX R332H (Homo sapiens),10.1
same,binding signal,ARX T333N (Homo sapiens),10.3
same,binding signal,ISX (Homo sapiens),9.8
same,binding signal,ISX R83Q (Homo sapiens),9.72
GGGCCTCA [8-mer GGGCCTCA],binding signal,ARX (Homo sapiens),10.2
same,binding signal,ARX L343Q (Homo sapiens),9.94
same,binding signal,ARX P353L (Homo sapiens),10.2
same,binding signal,ARX P353R (Homo sapiens),9.94
same,binding signal,ARX R332H (Homo sapiens),9.99
same,binding signal,ARX T333N (Homo sapiens),10.2
same,binding signal,[2],10.9
same,binding signal,[3],10.8
CCGGCGCA [8-mer CCGGCGCA],binding signal,ARX (Homo sapiens),10.3
same,binding signal,ARX L343Q (Homo sapiens),10.1
same,binding signal,ARX P353L (Homo sapiens),10.2
same,binding signal,ARX P353R (Homo sapiens),10.1
same,binding signal,ARX R332H (Homo sapiens),10.3
same,binding signal,ARX T333N (Homo sapiens),10.2
same,binding signal,[7],8.17
same,binding signal,[8],7.93
same,binding signal,[9],7.82
same,binding signal,[10],7.93
CCCAGAGG [8-mer CCCAGAGG],binding signal,ARX (Homo sapiens),10
same,binding signal,ARX L343Q (Homo sapiens),9.96
same,binding signal,ARX P353L (Homo sapiens),9.9
same,binding signal,ARX P353R (Homo sapiens),9.89
same,binding signal,ARX R332H (Homo sapiens),10
same,binding signal,ARX T333N (Homo sapiens),10.1
same,binding signal,[7],8.13
same,binding signal,[8],7.98
same,binding signal,[9],7.79
same,binding signal,[10],7.97
same,binding signal,[2],10.8
same,binding signal,[3],10.8
CCGGTGAC [8-mer CCGGTGAC],binding signal,ARX (Homo sapiens),10.2
same,binding signal,ARX L343Q (Homo sapiens),10.2
same,binding signal,ARX P353L (Homo sapiens),10.2
same,binding signal,ARX P353R (Homo sapiens),10.2
same,binding signal,ARX R332H (Homo sapiens),10.1
same,binding signal,ARX T333N (Homo sapiens),10.2
same,binding signal,[4],10.1
same,binding signal,[5],10.1
same,binding signal,[6],10.1
same,binding signal,[7],8.23
same,binding signal,[8],8.04
same,binding signal,[9],7.97
same,binding signal,[10],8.08
AATTAGGG [8-mer AATTAGGG],binding signal,ARX (Homo sapiens),12.9
same,binding signal,ARX L343Q (Homo sapiens),10.8
same,binding signal,ARX P353L (Homo sapiens),12.4
same,binding signal,ARX P353R (Homo sapiens),10.6
same,binding signal,ARX R332H (Homo sapiens),10.8
same,binding signal,ARX T333N (Homo sapiens),11.9
same,binding signal,ISX (Homo sapiens),14.6
same,binding signal,ISX R83Q (Homo sapiens),13.2
same,binding signal,[2],12.6
same,binding signal,[3],12.2
CGGGCACG [8-mer CGGGCACG],binding signal,ARX (Homo sapiens),10.2
same,binding signal,ARX L343Q (Homo sapiens),10.1
same,binding signal,ARX P353L (Homo sapiens),10.2
same,binding signal,ARX P353R (Homo sapiens),10.1
same,binding signal,ARX R332H (Homo sapiens),10.1
same,binding signal,ARX T333N (Homo sapiens),10.2
same,binding signal,[2],10.8
same,binding signal,[3],10.8
CTTGGGCC [8-mer CTTGGGCC],binding signal,ARX (Homo sapiens),10.1
same,binding signal,ARX L343Q (Homo sapiens),10.1
same,binding signal,ARX P353L (Homo sapiens),10.1
same,binding signal,ARX P353R (Homo sapiens),10
same,binding signal,ARX R332H (Homo sapiens),10
same,binding signal,ARX T333N (Homo sapiens),10.1
same,binding signal,[4],10.1
same,binding signal,[5],10.3
same,binding signal,[6],9.99
AGGCCCCC [8-mer AGGCCCCC],binding signal,ARX (Homo sapiens),9.86
same,binding signal,ARX L343Q (Homo sapiens),9.83
same,binding signal,ARX P353L (Homo sapiens),9.92
same,binding signal,ARX P353R (Homo sapiens),9.75
same,binding signal,ARX R332H (Homo sapiens),9.74
same,binding signal,ARX T333N (Homo sapiens),9.91
same,binding signal,ISX (Homo sapiens),9.59
same,binding signal,ISX R83Q (Homo sapiens),9.75
same,binding signal,[7],8.35
same,binding signal,[8],7.88
same,binding signal,[9],7.79
same,binding signal,[10],7.97
ATTAACGG [8-mer ATTAACGG],binding signal,ARX (Homo sapiens),12.1
same,binding signal,ARX L343Q (Homo sapiens),10.7
same,binding signal,ARX P353L (Homo sapiens),11.7
same,binding signal,ARX P353R (Homo sapiens),10.6
same,binding signal,ARX R332H (Homo sapiens),10.8
same,binding signal,ARX T333N (Homo sapiens),11.4
same,binding signal,[7],10
same,binding signal,[8],8.85
same,binding signal,[9],8.63
ATCATTGA [8-mer ATCATTGA],binding signal,ARX (Homo sapiens),11.3
same,binding signal,ARX L343Q (Homo sapiens),10.8
same,binding signal,ARX P353L (Homo sapiens),11.2
same,binding signal,ARX P353R (Homo sapiens),10.8
same,binding signal,ARX T333N (Homo sapiens),11.1
ACCCCAGG [8-mer ACCCCAGG],binding signal,ARX (Homo sapiens),10.2
same,binding signal,ARX L343Q (Homo sapiens),10.1
same,binding signal,ARX P353L (Homo sapiens),10.2
same,binding signal,ARX P353R (Homo sapiens),10
same,binding signal,ARX R332H (Homo sapiens),10.2
same,binding signal,ARX T333N (Homo sapiens),10.2
same,binding signal,PBX4 (Homo sapiens),9.67
same,binding signal,[11],9.76
same,binding signal,[7],8.49
same,binding signal,[8],8.04
same,binding signal,[9],7.87
same,binding signal,[10],8.21
ATAATCTC [8-mer ATAATCTC],binding signal,ARX (Homo sapiens),11.3
same,binding signal,ARX L343Q (Homo sapiens),10.8
same,binding signal,ARX P353L (Homo sapiens),11
same,binding signal,ARX P353R (Homo sapiens),10.7
same,binding signal,ARX R332H (Homo sapiens),10.8
same,binding signal,ARX T333N (Homo sapiens),11
same,binding signal,[7],11
same,binding signal,[8],9.28
same,binding signal,[9],8.67
same,binding signal,[10],9.55
AGGGGTGC [8-mer AGGGGTGC],binding signal,ARX (Homo sapiens),10.3
same,binding signal,ARX L343Q (Homo sapiens),10.3
same,binding signal,ARX P353L (Homo sapiens),10.3
same,binding signal,ARX P353R (Homo sapiens),10.2
same,binding signal,ARX R332H (Homo sapiens),10.3
same,binding signal,ARX T333N (Homo sapiens),10.3
same,binding signal,[7],8.14
same,binding signal,[8],8.16
same,binding signal,[9],7.99
same,binding signal,[10],8.2
CGAACCCC [8-mer CGAACCCC],binding signal,ARX (Homo sapiens),10.2
same,binding signal,ARX L343Q (Homo sapiens),10.3
same,binding signal,ARX P353L (Homo sapiens),10.3
same,binding signal,ARX P353R (Homo sapiens),10.1
same,binding signal,ARX R332H (Homo sapiens),10.3
same,binding signal,ARX T333N (Homo sapiens),10.3
same,binding signal,[2],10.9
same,binding signal,[3],11
GAAATTGC [8-mer GAAATTGC],binding signal,ARX (Homo sapiens),11.1
same,binding signal,ARX L343Q (Homo sapiens),10.6
same,binding signal,ARX P353R (Homo sapiens),10.6
CCCTGGGC [8-mer CCCTGGGC],binding signal,ARX (Homo sapiens),10.1
same,binding signal,ARX L343Q (Homo sapiens),10.1
same,binding signal,ARX P353L (Homo sapiens),10.2
same,binding signal,ARX P353R (Homo sapiens),10
same,binding signal,ARX R332H (Homo sapiens),10
same,binding signal,ARX T333N (Homo sapiens),10.2
same,binding signal,[2],10.9
same,binding signal,[3],10.9
ACCCGACG [8-mer ACCCGACG],binding signal,ARX (Homo sapiens),10.2
same,binding signal,ARX L343Q (Homo sapiens),10.2
same,binding signal,ARX P353L (Homo sapiens),10.2
same,binding signal,ARX P353R (Homo sapiens),10.1
same,binding signal,ARX R332H (Homo sapiens),10.2
same,binding signal,ARX T333N (Homo sapiens),10.4
same,binding signal,[7],8.39
same,binding signal,[8],8.21
same,binding signal,[9],8.09
same,binding signal,[10],8.26
ACCGCCTC [8-mer ACCGCCTC],binding signal,ARX (Homo sapiens),10.2
same,binding signal,ARX L343Q (Homo sapiens),10.1
same,binding signal,ARX P353L (Homo sapiens),10.3
same,binding signal,ARX P353R (Homo sapiens),10.1
same,binding signal,ARX R332H (Homo sapiens),10.1
same,binding signal,ARX T333N (Homo sapiens),10.3
same,binding signal,[4],10.3
same,binding signal,[5],10.4
same,binding signal,[6],10.2
GCGGACCC [8-mer GCGGACCC],binding signal,ARX (Homo sapiens),10.1
same,binding signal,ARX L343Q (Homo sapiens),10.1
same,binding signal,ARX P353L (Homo sapiens),10.1
same,binding signal,ARX P353R (Homo sapiens),9.98
same,binding signal,ARX R332H (Homo sapiens),10.1
same,binding signal,ARX T333N (Homo sapiens),10.2
same,binding signal,[2],10.9
same,binding signal,[3],10.9
CAATTGGG [8-mer CAATTGGG],binding signal,ARX (Homo sapiens),11.3
same,binding signal,ARX L343Q (Homo sapiens),10.5
same,binding signal,ARX P353L (Homo sapiens),11.2
same,binding signal,ARX P353R (Homo sapiens),10.5
same,binding signal,ARX R332H (Homo sapiens),10.8
same,binding signal,ARX T333N (Homo sapiens),11
same,binding signal,[2],12.2
AGCCGGCT [8-mer AGCCGGCT],binding signal,ARX (Homo sapiens),10.4
same,binding signal,ARX L343Q (Homo sapiens),10
same,binding signal,ARX P353L (Homo sapiens),10.1
same,binding signal,ARX P353R (Homo sapiens),10
same,binding signal,ARX R332H (Homo sapiens),10.1
same,binding signal,ARX T333N (Homo sapiens),10.3
same,binding signal,ISX (Homo sapiens),10.1
same,binding signal,ISX R83Q (Homo sapiens),9.87
